Target: α-syn oligomers (Homo sapiens, UniProt P37840)
Conditions: 50 µM compound, αSyn 2,1 µM (αSyn alone 64.5%)
Method: Planar lipid bilayers were generated and analyzed in a Ionovation Compact (Ionovation, Osnabrück, Germany) by the painting technique. Two bath chambers (1.2 ml) separated by a Teflon-septum were filled with 250 mM KCl, 10 mM MOPS, pH = 7.2 (Merck, Darmstadt, Germany and Roth, Karlsruhe, Germany). Then, 2 μl of a 100 mg/ml-solution of purified azolectin in n-Decan (Ionovation, Osnabrück, Germany) were applied to a 120-μm pinhole in the septum. After 30 min incubation at room temperature, lipid was thinned out by repetitive lowering and re-raising of the buffer level until a bilayer was formed. This formation was monitored optically and by capacitance measurements. […] Measurements were performed using Ag/AgCl-electrodes connected to an EPC10-amplifier and Patchmaster software (HEKA, Lambrecht/Pfalz, Germany). The noise was ~0.5 pA at 3 kHz bandwidth. α-syn was incubated in 50 mM Tris–HCl, pH 7.0 with 1 % DMSO (Sigma-Aldrich, Taufkirchen, Germany) and 20 μM FeCl3 (Merck, Darmstadt, Germany) for 72 h at room temperature in a total volume of 200 μl. […] . After bilayer formation, α-syn was added in 20 μl aliquots to the cis chamber close to the membrane and the electrophysiological properties were monitored. Threshold for pore detection was set to 72 pS. If no pore formation was detected for 5 min, the next aliquot of the same sample was added as described previously.

For `O=c1cc(-c2ccccc2)oc2cc(O)c(O)c(O)c12` [baicalein], the “pore formation [%]” value was 12.5%.

— PMC3661926 (Acta Neuropathologica, 2013)
